According to PubChem BioAssay AID493208 (National Center for Advancing Translational Sciences (NCATS), 2011):
Among all 44,000 compounds or so, about 340 (0.77%) were called active. About 5% were inconclusive and are not listed. Calls follow the shape of the dose curve; as a rule, active = well fitted inhibition curve with a large enough effect; inconclusive = small, poorly fitted or top-dose-only effect; inactive = flat fitted curve, though single readings scatter. Some of the results follow.

assay: Acumen qHTS Assay for Inhibitors of the mTORC1 Signaling Pathway in MEF (Tsc2-/-, p53-/-) Cells: Sytravon; details: phospho-rpS6 immunofluorescence/PI, 24 h; series mostly up to 38.3 µM; activity change, negative = inhibition: at the top concentration;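 also: plate controls were DMSO for no effect and rapamycin for full effect; nearly all actives have a fitted effect of over 50% in size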
Procedure, shortened: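 Cell-based qHTS: Tsc2-/- p53-/- MEF, 24 h cpd, 37 °C; fix/perm, anti-phospho-S6 Alexa-488 + PI; Acumen 488 nm scan; pS6/PI ratio, % positive cells; rapamycin 7.5 nM = inhibition ref; PI count = viability.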

Activity change, negative = inhibition, inactive:
CC(C)CCNC(=O)c1ccc(NC(=O)N2CCCCc3ccccc32)cc1 -3.11%
Cc1ccc(N2CC(NC(=O)C3CCCC3)CC2=O)cc1 (centres undefined) -0.525%
COc1cccc(N2CCN(C(=O)Cn3ncc4c3-c3ccccc3OC4)CC2)c1 -3.03%
CCOc1ccc(Nc2c(S(=O)(=O)c3ccccc3)cnc3ccc(CC)cc23)cc1 -16.8%
Cc1ccc(C(=O)c2cn(CC(=O)Nc3ccc4c(c3)OCCO4)c3nc(C)ccc3c2=O)cc1 -5.15%
CSc1oc(-c2ccc(F)cc2)nc1S(=O)(=O)c1ccc(Br)cc1 -0.794%
CC(C)CC(NC(=O)C1CCC(C)CC1)C(=O)OCC(=O)c1ccc(Cl)cc1 (centres undefined) -3.19%
O=C(CSc1nc2ccccc2n1Cc1ccccc1)NCc1ccccc1 0%
Cc1cc(C)cc(OC(C)C(=O)Nc2nc3c(s2)CCCC3)c1 (centres undefined) -0.853%
COc1ccc(NC(=O)c2ccco2)cc1NC(=O)c1ccc(OC(C)C)cc1 -6.42%
CCOC(=O)c1ccc(NC(=O)C2CCCN(c3cnccn3)C2)cc1 (centres undefined) 2.04%
COc1cccc(/C=C(\C#N)c2nc3ccccc3c(=O)[nH]2)c1OC 1.09%
CCCC(C(=O)Nc1cc(C)c(Cl)cc1OC)N1Cc2ccccc2C1=O (centres undefined) 0.632%
COc1cc(NC(=O)Cn2cc(S(=O)(=O)N3CCC(C)CC3)c3ccccc3c2=O)cc(OC)c1OC 1.47%
CCOC(=O)C1=C(CNCc2ccc(Cl)cc2)NC(=O)NC1c1ccccc1 (centres undefined) 0.84%
CC(=O)N1c2ccccc2CC1C(=O)N1CCN(c2ccccc2F)CC1 (centres undefined) 10.1%
COc1ccc(CCNC(=O)Cn2nc(-c3ccc(Cl)cc3)ccc2=O)cc1OC 8.35%
CCOc1ccc(Nc2ncnc3onc(-c4ccc(Cl)cc4)c23)cc1 -14.2%
COc1cn(CC(=O)Nc2cccc(C)c2)c(CN2CCCCC2)cc1=O -0.786%
CCn1cc(/C=C(\NC(=O)c2ccc(OC)c(OC)c2)C(=O)NCCCn2ccnc2)c2ccccc21 2.33%
CCOC(=O)c1cc(-c2ccc(OC)cc2)n(CCC(=O)NCCc2ccc(OCC)c(OCC)c2)c1C -0.138%
Cc1ccc(NC(=O)N2CCC(CN3CCCCC3)CC2)c(Cl)c1 2.71%
CC(=O)c1ccc(N2CCN(S(=O)(=O)c3ccc(-c4cnc(C5CC5)o4)cc3)CC2)cc1 0%
Cc1ccc(OCC(=O)Nc2ccc(C(=O)OCc3cc(=O)n4ccsc4n3)cc2)cc1C 0%
Cc1nc2sccn2c(=O)c1S(=O)(=O)Nc1cccc(Cl)c1C -1.8%
Cc1ccc(C2C(=O)N(C3CCCCCC3)CC(=O)N2CCC2=CCCCC2)cc1 (centres undefined) 9.9%
Cc1ccc(N2CCN(C(=O)CCS(=O)(=O)c3cc4c(cc3Cl)NC(=O)CO4)CC2)c(C)c1 -17.4%
CC1CCN(c2nc3c(S(=O)(=O)c4cccc(Cl)c4)nnn3c3ccsc23)CC1 -3.93%
COc1cc([N+](=O)[O-])ccc1NC(=O)N1CCC2(CC1)Nc1cc(F)ccc1-n1cccc12 -0.608%
CC(C)(C)OC(=O)N1CCC(c2c(C(=O)N3CCN(c4ncccn4)CC3)cnn2-c2ccc(F)cc2)CC1 0.365%
CCOC(=O)c1c(-c2ccc(OC)cc2)oc2ccc(OCc3ccc(F)cc3F)cc12 -11.3%
Cc1ccccc1Nc1nnc(-c2ccc(C)c(S(=O)(=O)NCC3CCCO3)c2)c2ccccc12 (centres undefined) -3.64%
CN(C)c1ccc(CNC(=O)C2CCN(C(=O)c3ccc(-n4ccc5ccccc54)s3)CC2)cc1 -21.7%
CCOC(=O)c1ccc(NC(=O)C(CC)Sc2nncn3c2cc2oc(C)cc23)cc1 (centres undefined) -5.53%
Cc1cn2c(=O)cc(COC(=O)c3ccc(NC(=O)c4ccc(C(C)(C)C)cc4)cc3)nc2s1 0%
COc1ccc(C2=Nc3ccccc3N(CC(=O)Nc3cccc(C(C)=O)c3)C(=O)C2)cc1 0%
COc1ccc(CNS(=O)(=O)c2csc(C(N)=O)c2)cc1OC 0%
CCCCNc1nc2c(-c3cccc(Br)c3)nnn2c2ccccc12 -12.8%
CCC1=C(c2ccc(C)cc2)S(=O)(=O)N=C1N1CCC(C(=O)NCCc2cccc(OC)c2)CC1 0.518%
COc1cccc2c1cc1c(=O)n(CC(=O)NCCCN3CCN(C)CC3)nc(C)n12 -6.92%
COc1ccc(OCCCn2c(C)nc3cc(C)c(C)cc32)cc1 -11.1%
O=C1Nc2c(c(=O)[nH]c(=O)n2-c2ccc(F)cc2)C1(NS(=O)(=O)c1ccc(Cl)cc1)C(F)(F)F (centres undefined) 1.47%
Cn1nnnc1SCCCNCc1cc(Cl)ccc1OCc1ccccc1 -7.48%
COC(=O)c1ccc(OCC2c3cc(OC)c(OC)cc3CCN2C(=O)Cc2ccc(OC)c(OC)c2)cc1 (centres undefined) 7.93%
CC(C)c1nn2c(=O)cc(COC(=O)c3ccc4c(c3)OCO4)nc2s1 3.42%
Cc1cn2c(=O)c(S(=O)(=O)NCCc3ccc(Cl)cc3)c(C)nc2s1 5.79%
COc1cc(C(=O)Nc2nnc(CC(C)(C)C)s2)cc(OC)c1OC -0.108%
CCc1ccc(NC(=O)C2CCCN2S(=O)(=O)c2cccc3nsnc23)cc1 (centres undefined) -1.24%
CC(=O)N1CCc2c(sc3c2c(=O)n(-c2ccccc2)c(=O)n3CC(=O)c2ccc(F)cc2)C1 3.17%
CCOc1ccc(C(=O)Nc2ccc(Cl)c(-c3nc4cc(C)cc(C)c4o3)c2)cc1 -18.7%
COc1ccc(-c2nc3sc(CCNC(=O)c4ccc(C(C)(C)C)cc4)c(C)n3n2)cc1 -5.92%
CCOc1ccccc1C(=O)Nc1cc2c(cc1C)n(C)c(=O)c(=O)n2C -4.4%
COc1ccc(CNC(=O)CN(C)S(=O)(=O)c2ccc3[nH]c4c(c3c2)CCCC4)cc1 1.29%
Cn1cc(-c2cc3n(n2)CCC(=O)N3CCCC(=O)NCc2ccccc2)c2ccccc21 1.81%
CCOC(=O)C1CCC(CN(Cc2ccc(OC)cc2)S(=O)(=O)c2ccc(F)c(C(=O)Nc3cc(Cl)ccc3OC)c2)CC1 (centres undefined) 4.62%
COc1ccc(NC(=O)Cc2ccc(NC(=O)N3CCCCc4ccccc43)cc2)c(OC)c1 -5.42%
CCN(CC)CCNC(=O)Cn1cnc2sc(C)c(S(=O)(=O)N3CCC(C)CC3)c2c1=O 6.48%
COc1cccc(NC(=O)CN2C(=O)C3(SCC(=O)N3c3cc(C)cc(C)c3)c3ccccc32)c1 (centres undefined) 6.54%
Cc1ccc(NC(=O)C2CCN(S(=O)(=O)c3c(C)noc3C)CC2)cc1C 1.56%
